The IC50 comes from the fitted curve, where viability falls to half of the control; where the fit passes the top or lowest dose, that dose stands as a limit. For AUC the same curve is integrated over the 256-fold range of doses and scaled to a fraction: 1 means no effect, lower means more sensitive. For part of these data: Any top dose called inferred comes from the curve model; the source does not state it.
How the values were obtained:
Test in all cases: Viability of human cancer cell lines after 72 h of drug (GDSC screen)
Bexarotene = compound: C=C(c1ccc(C(=O)O)cc1)c1cc2c(cc1C)C(C)(C)CCC2(C)C [Bexarotene]; conditions: top dose 8 µM
Description: (§1)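 Human cancer cell lines in 384-well plates, medium with 10% serum, drug for 72 h over a 256-fold dose range (nine 2-fold or five 4-fold steps up to the top dose). Adherent lines were fixed and stained with the nucleic acid dye Syto60, suspension lines read with resazurin; signal relative to control wells, capped at 0 and 100%. One two-parameter sigmoid per drug and line, fitted in a mixed model over all curves with the slope shared within a line.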

BMS-345541 = compound: Cc1ccc2nc(NCCN)c3ncc(C)n3c2c1 [BMS-345541]; conditions: top dose 16 µM
Description: as §1

NPK76-II-72-1 = compound: COc1cc(C(=O)NC2CCN(C)CC2)ccc1Nc1ncc2c(n1)N(C1CCCC1)C(C)CC(=O)N2C [NPK76-II-72-1]; conditions: top dose 10.24 µM; top dose inferred
Description: as §1

GSK-650394 = compound: O=C(O)c1ccc(-c2c[nH]c3ncc(-c4ccccc4)cc23)cc1C1CCCC1 [GSK-650394]; conditions: top dose 16 µM; top dose inferred
Description: as §1

Etoposide = compound: COc1cc([C@@H]2c3cc4c(cc3[C@@H](O[C@@H]3O[C@@H]5CO[C@@H](C)O[C@H]5[C@H](O)[C@H]3O)[C@H]3COC(=O)[C@H]23)OCO4)cc(OC)c1O [Etoposide]; conditions: top dose 16 µM
Description: as §1

YK 4-279 = compound: COc1ccc(C(=O)CC2(O)C(=O)Nc3c(Cl)ccc(Cl)c32)cc1 [YK 4-279]; conditions: top dose 10 µM
Description: as §1

XAV 939 = compound: Oc1nc(-c2ccc(C(F)(F)F)cc2)nc2c1CSCC2 [XAV 939]; conditions: top dose 5 µM; top dose inferred
Description: as §1

AZD7762 = compound: NC(=O)Nc1cc(-c2cccc(F)c2)sc1C(=O)N[C@H]1CCCNC1 [AZD7762]; conditions: top dose 2 µM
Description: as §1

Cell Line | AUC (Bexarotene) | IC50 (Bexarotene) [µM] | AUC (BMS-345541) | IC50 (BMS-345541) [µM] | AUC (NPK76-II-72-1) | IC50 (NPK76-II-72-1) [µM] | AUC (GSK-650394) | IC50 (GSK-650394) [µM] | AUC (Etoposide) | IC50 (Etoposide) [µM] | AUC (YK 4-279) | IC50 (YK 4-279) [µM] | AUC (XAV 939) | IC50 (XAV 939) [µM] | AUC (AZD7762) | IC50 (AZD7762) [µM]
BC-3 (B-cell lymphoma, suspension) | 0.958 | > 8 | 0.878 | 13.3 | 0.484 | 0.583 | 0.718 | 3.81 | 0.663 | 2.68 |  |  |  |  |  | 
BICR31 (head and neck, adherent) | 0.955 | > 8 | 0.935 | > 16 | 0.979 | > 10.2 | 0.86 | 13.6 | 0.552 | 1.39 |  |  |  |  |  | 
CAL-148 (breast, suspension) | 0.989 | > 8 | 0.907 | > 16 | 0.812 | 4.96 | 0.956 | > 16 | 0.439 | 0.692 |  |  |  |  |  | 
Caov-3 (ovary, adherent) | 0.991 | > 8 | 0.922 | > 16 | 0.877 | 8.13 | 0.981 | > 16 | 0.895 | 15.4 |  |  |  |  |  | 
ECC12 (stomach, suspension) |  |  |  |  |  |  |  |  | 0.508 | 1.06 |  |  |  |  |  | 
HCC1599 (breast, suspension) | 0.975 | > 8 | 0.712 | 4.4 | 0.462 | 0.496 | 0.909 | > 16 | 0.403 | 0.519 |  |  |  |  |  | 
HCC-33 (small cell lung carcinoma, adherent) | 0.986 | > 8 | 0.886 | > 16 | 0.771 | 3.97 | 0.955 | > 16 | 0.964 | > 16 |  |  |  |  |  | 
KP-N-YS (neuroblastoma, adherent) |  |  | 0.795 | 8.72 | 0.796 | 5.6 | 0.704 | 4.12 | 0.695 | 3.85 |  |  |  |  |  | 
NCI-H748 (small cell lung carcinoma, suspension) | 0.97 | > 8 | 0.788 | 9.2 | 0.961 | > 10.2 | 0.903 | > 16 | 0.475 | 0.841 |  |  |  |  |  | 
NK-92MI (lymphoid neoplasm, suspension) | 0.988 | > 8 | 0.882 | 15 |  |  | 0.63 | 2.22 | 0.676 | 2.99 |  |  |  |  |  | 
SW1271 (small cell lung carcinoma, adherent) | 0.957 | > 8 | 0.912 | > 16 | 0.782 | 4.99 | 0.8 | 9.17 |  |  | 0.757 | 3.93 | 0.982 | > 5 | 0.762 | 0.818
SW1990 (pancreas, adherent) | 0.871 | > 8 | 0.931 | > 16 | 0.984 | > 10.2 | 0.842 | 14.3 |  |  | 0.87 | > 10 | 0.924 | > 5 | 0.603 | 0.251
Saos-2 (osteosarcoma, adherent) | 0.813 | 6.91 | 0.95 | > 16 | 0.98 | > 10.2 | 0.935 | > 16 |  |  | 0.783 | 6.25 | 0.948 | > 5 | 0.759 | 0.995
U251 (glioma, adherent) | 0.959 | > 8 | 0.885 | > 16 | 0.785 | 4.18 | 0.869 | 13.6 |  |  | 0.59 | 1.09 | 0.956 | > 5 | 0.979 | > 2
UACC-62 (melanoma, adherent) | 0.972 | > 8 | 0.979 | > 16 | 0.988 | > 10.2 | 0.988 | > 16 |  |  | 0.701 | 2.28 | 0.963 | > 5 | 0.804 | 0.989
UACC-257 (melanoma, adherent) | 0.966 | > 8 | 0.865 | > 16 | 0.897 | > 10.2 | 0.959 | > 16 |  |  | 0.835 | 8.93 | 0.919 | > 5 | 0.931 | > 2
UM-UC-3 (bladder, adherent) | 0.95 | > 8 | 0.898 | > 16 | 0.827 | 5.75 | 0.757 | 5.19 |  |  | 0.669 | 1.79 | 0.964 | > 5 | 0.803 | 0.922
WM-115 (melanoma, adherent) | 0.871 | > 8 | 0.874 | > 16 | 0.887 | > 10.2 | 0.981 | > 16 |  |  | 0.656 | 1.88 | 0.98 | > 5 | 0.898 | > 2
WSU-DLCL2 (B-cell lymphoma, suspension) | 0.992 | > 8 | 0.88 | 11.8 | 0.966 | > 10.2 | 0.972 | > 16 |  |  | 0.972 | > 10 | 0.79 | 1.83 | 0.64 | 0.282
WSU-NHL (lymphoid neoplasm, suspension) | 0.99 | > 8 | 0.907 | > 16 | 0.722 | 2.49 | 0.85 | 10 |  |  | 0.803 | 4.27 | 0.988 | > 5 | 0.34 | 0.0478

Source: the supplement of paper PMC4967469
